# Measurements taken from article PMC3675019.
# Amino acid sequences for entries named in this document (tags omitted).
# UniProt P22415: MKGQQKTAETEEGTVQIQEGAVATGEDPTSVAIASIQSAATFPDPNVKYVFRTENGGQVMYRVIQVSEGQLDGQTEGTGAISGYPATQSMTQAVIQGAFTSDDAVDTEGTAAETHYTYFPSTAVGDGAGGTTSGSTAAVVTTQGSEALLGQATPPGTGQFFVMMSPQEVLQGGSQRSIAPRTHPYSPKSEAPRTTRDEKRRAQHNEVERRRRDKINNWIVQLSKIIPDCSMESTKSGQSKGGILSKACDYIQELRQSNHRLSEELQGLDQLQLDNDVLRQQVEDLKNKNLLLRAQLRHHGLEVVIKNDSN
# UniProt Q9P0U4: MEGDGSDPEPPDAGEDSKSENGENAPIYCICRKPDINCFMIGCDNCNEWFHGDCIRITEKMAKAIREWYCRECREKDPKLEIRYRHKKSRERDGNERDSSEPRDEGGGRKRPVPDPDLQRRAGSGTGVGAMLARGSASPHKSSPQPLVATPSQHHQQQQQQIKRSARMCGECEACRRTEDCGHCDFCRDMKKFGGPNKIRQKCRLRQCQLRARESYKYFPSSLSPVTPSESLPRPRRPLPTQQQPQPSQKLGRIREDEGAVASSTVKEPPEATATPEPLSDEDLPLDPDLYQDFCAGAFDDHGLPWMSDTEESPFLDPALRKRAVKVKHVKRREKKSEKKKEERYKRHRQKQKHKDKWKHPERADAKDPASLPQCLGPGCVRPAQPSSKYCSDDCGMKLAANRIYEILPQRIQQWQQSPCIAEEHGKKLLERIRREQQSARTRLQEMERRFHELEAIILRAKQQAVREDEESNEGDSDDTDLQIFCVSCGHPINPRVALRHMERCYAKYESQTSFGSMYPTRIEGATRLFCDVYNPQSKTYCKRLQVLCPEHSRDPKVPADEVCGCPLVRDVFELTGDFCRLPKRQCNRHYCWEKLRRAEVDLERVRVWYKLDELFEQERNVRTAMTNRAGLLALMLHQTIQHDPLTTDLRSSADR
# UniProt Q03164: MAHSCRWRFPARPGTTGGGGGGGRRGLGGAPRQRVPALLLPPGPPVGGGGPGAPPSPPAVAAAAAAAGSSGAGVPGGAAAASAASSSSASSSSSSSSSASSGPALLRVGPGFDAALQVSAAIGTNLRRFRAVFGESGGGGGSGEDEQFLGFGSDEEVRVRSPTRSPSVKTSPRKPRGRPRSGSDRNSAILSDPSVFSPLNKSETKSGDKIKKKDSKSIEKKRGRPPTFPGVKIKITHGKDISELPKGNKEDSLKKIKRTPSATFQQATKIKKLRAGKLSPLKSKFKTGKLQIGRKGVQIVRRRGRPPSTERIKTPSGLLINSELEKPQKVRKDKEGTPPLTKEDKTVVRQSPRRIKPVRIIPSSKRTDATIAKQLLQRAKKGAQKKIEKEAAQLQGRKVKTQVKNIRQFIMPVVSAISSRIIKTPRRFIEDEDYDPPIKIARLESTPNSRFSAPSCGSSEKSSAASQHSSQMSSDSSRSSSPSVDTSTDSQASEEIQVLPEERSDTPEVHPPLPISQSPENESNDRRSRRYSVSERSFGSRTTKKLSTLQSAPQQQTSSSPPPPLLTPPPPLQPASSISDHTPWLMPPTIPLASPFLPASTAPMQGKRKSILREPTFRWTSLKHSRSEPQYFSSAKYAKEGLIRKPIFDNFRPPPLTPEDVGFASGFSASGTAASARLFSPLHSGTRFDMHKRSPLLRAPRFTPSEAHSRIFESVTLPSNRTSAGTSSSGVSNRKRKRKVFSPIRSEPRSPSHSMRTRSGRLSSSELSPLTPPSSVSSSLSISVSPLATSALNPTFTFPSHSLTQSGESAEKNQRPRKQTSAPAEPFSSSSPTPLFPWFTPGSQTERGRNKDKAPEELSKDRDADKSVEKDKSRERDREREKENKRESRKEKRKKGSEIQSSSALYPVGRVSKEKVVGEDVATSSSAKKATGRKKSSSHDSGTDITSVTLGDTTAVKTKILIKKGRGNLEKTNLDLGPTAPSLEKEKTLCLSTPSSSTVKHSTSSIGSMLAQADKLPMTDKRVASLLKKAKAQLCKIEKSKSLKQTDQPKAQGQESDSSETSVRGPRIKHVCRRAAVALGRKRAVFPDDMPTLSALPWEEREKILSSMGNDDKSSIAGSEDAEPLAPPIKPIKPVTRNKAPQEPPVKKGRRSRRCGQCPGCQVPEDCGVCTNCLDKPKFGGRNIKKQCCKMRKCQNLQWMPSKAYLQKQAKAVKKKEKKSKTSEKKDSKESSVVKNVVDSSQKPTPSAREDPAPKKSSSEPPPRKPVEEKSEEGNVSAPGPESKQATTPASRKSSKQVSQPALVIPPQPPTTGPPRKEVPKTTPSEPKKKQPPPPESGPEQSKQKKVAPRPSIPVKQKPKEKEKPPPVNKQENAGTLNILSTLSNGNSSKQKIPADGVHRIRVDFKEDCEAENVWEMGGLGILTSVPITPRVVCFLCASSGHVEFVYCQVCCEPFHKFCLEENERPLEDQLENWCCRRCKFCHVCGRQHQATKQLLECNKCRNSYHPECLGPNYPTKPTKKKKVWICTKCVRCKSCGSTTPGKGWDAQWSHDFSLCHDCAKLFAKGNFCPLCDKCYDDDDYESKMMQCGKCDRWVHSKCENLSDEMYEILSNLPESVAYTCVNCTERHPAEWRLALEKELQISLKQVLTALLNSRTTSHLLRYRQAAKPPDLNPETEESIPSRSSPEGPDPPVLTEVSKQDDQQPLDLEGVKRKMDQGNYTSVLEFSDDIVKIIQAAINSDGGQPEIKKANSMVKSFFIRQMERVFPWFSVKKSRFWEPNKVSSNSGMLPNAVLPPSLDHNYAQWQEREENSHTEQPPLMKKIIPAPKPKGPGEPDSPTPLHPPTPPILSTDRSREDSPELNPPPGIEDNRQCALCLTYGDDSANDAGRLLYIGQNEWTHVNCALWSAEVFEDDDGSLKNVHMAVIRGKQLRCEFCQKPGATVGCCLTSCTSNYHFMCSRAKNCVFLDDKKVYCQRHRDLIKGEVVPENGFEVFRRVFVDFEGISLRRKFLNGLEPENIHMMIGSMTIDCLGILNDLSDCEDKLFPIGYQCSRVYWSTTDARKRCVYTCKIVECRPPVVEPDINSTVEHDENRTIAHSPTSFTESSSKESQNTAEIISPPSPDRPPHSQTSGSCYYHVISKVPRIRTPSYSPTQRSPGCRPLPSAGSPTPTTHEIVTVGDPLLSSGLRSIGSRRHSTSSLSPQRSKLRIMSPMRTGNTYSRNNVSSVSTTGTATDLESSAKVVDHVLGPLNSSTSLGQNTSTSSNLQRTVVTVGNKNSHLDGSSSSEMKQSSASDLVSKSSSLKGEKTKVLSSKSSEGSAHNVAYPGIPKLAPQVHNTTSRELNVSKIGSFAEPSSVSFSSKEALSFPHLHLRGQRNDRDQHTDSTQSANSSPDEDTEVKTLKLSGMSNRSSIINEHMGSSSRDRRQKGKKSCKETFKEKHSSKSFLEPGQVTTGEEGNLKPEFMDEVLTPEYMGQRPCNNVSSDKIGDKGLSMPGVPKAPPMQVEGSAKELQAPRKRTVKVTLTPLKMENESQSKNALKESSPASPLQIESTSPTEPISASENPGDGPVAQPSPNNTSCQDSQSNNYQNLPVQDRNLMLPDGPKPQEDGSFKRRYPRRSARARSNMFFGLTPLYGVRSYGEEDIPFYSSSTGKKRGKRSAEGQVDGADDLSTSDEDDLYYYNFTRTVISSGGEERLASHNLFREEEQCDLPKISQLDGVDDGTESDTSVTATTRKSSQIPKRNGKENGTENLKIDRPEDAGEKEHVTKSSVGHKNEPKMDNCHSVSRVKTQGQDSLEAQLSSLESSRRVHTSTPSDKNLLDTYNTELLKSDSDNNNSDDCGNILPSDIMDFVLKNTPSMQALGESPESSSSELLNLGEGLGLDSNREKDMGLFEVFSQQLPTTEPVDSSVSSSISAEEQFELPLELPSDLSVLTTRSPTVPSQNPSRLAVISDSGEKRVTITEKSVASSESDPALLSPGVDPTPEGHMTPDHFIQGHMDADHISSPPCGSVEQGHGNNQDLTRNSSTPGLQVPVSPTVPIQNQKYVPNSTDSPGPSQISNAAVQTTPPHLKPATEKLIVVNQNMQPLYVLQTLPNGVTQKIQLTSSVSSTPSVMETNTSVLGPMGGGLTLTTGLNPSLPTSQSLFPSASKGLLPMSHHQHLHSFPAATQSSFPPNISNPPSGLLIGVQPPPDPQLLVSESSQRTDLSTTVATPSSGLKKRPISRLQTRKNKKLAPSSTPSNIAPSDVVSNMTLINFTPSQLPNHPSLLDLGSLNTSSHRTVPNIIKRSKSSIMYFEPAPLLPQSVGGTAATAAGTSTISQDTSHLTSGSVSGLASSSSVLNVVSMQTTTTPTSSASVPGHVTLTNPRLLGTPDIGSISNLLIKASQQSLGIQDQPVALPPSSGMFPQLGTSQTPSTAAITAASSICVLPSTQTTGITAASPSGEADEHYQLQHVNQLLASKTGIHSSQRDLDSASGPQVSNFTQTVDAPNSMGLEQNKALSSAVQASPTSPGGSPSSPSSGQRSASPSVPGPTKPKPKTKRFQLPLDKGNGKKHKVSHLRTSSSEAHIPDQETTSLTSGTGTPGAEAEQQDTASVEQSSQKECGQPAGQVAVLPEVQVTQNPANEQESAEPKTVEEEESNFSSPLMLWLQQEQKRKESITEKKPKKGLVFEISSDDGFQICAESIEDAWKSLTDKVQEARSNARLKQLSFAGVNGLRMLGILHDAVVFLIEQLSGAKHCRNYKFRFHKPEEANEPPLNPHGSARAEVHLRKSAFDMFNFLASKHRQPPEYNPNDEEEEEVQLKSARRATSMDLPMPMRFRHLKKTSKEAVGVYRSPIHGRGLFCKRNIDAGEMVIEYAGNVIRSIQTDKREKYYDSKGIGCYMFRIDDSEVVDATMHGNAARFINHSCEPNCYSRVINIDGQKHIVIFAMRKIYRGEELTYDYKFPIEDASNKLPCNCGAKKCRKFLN
# Results are given in words; binding and its absence hold for the method and conditions named. For part of these data: In cells and extracts the contact can be indirect. Some entries that bind do so weakly or less than the wild type.
# Columns and labels:
# [1] = biological target: GST-USF1 (human) (UniProt P22415); assay: pull-down; 35S-labeled ASH2L incubated with GST and GST-USF1 fusion proteins pre-absorbed to glutathione-Sepharose beads; bound ASH2L seen by fluorography; only the target purified
# [2] = biological target: GST-USF1 (human) (UniProt P22415); assay: pull-down; GST-USF1 pre-absorbed to glutathione-sepharose beads, incubated with the purified, baculovirus reconstituted hSET1A complex with ASH2L; PBS, 10% glycerol, 1% Triton X-100, 1 mM EDTA, 1 mM DTT, RT, 1 hour; western blot; both purified
# [3] = biological target: GST-USF1 (human) (UniProt P22415); assay: pull-down; GST-USF1 pre-absorbed to glutathione-sepharose beads, incubated with each single Flag-tagged component of the hSET1A complex purified from SF9 cells; PBS, 10% glycerol, 1% Triton X-100, 1 mM EDTA, 1 mM DTT, RT, 1 hour; western blot with Flag antibody; both purified
# [4] = biological target: Flag-tagged USF1 (human) (UniProt P22415); assay: co-IP; extracts of K562 cells that overexpress Flag-tagged USF1; co-precipitated proteins seen by blot
# [5] = biological target: hSET1A (human (endogenous in K562)) (UniProt O15047); assay: as above
substance,measurement,setting,value
35S-labeled ASH2L (from UniProt Q9UBL3 1-628),binding,[1],binds
Flag-tagged ASH2L (from UniProt Q9UBL3 1-628),binding,[2],binds
same,binding,[3],binds
CFP1 (from UniProt Q9P0U4 1-656),binding,[4],no binding
same,binding,[5],binds
MLL1 (from UniProt Q03164 1-3969) (enzyme),binding,[4],no binding
